Measured values from patent US20080287445A1, “Prokineticin 2 receptor antagonists” (priority 2005, published 2008).
Some entries of the source have several records that differ or are many. This is not the full list of results. An entry can have further records. Results that share an entry read as repeated measurements (runs, samples, wells or individuals). Records carry a tag for their origin. The letters are not those of the source and start again with each entry.

What was measured:
PK1 receptor = PK1 receptor (Rattus norvegicus, UniProt Q8R416); conditions: test compound 1 μM basolateral, 15 min; PK1 10 and 100 nM cumulative
Description: (§1) Methodology. The basic methodology for Ussing-type ion flux chambers used in these studies was the same as that described in detail above with the following modifications to the experimental protocol. […] The responses to two sequential EFS were used to gauge tissue viability and comparability of the responses of individual tissues from each rat and between rats. Tissue conductance was measured at periodic intervals as changes in the amplitudes of brief short-circuit current responses evoked by application of 1 mV amplitude bi-polar pulses from a pulse generator using Ohm's Law. Three to four tissues from each rat were studied. The tissues from a given animal were grouped and assigned accordingly: one control tissue which received only vehicle followed by two consecutive doses of PK-1 ligand added in a cumulative fashion to the basolateral surface of the tissue; the remaining two to three tissues from the same animal were assigned to be exposed to a given PK-1 receptor antagonist (e.g., 3-4 tissues from 1 rat: Control, Antagonist 1, Antagonist2, and/or Antagonist3). Test compound was added to the basolateral tissue side reservoir at a final concentration of 1 μM and allowed a 15 minute incubation period prior to challenge with the PK1 peptide. […]

[1] = system: pro-secretory effect of carbachol; design: species or system rat; conditions: two ascending cumulative carbachol concentrations, serosal side
Description: as §1

[2] = target: T1, GPR73 (prokineticin 1 receptor) (Homo sapiens, UniProt Q8TCW9); test: PK1 functional assay: Ca2+ mobilization screening for PK1 antagonists on the FLIPR; type: cell-based; conditions: HEK 293 GPR73 cells; PK1 ligand preparation at its EC50; multiple values = multiple testing; read-out: Ca^2+ Mobilization IC50
T1 construct: expressed in transfected cells; host or cells: HEK 293
Description: At a time of 24 h prior to running the assay, in cell culture media (DMEM containing high Glucose and L-glutamine, 10% FBS, 1% Pen/Streptomycin, 1% Sodium Pyruvate, 20 mM HEPES, Zeocin 200 mg/L), 100 μL of 1.3*10^6/ml HEK 293 GPR73 (prokineticin 1 receptor) expressing cells were plated in a 96 well poly-d-lysine coated plate (Costar), and incubated at 37 C and 5% CO2. On the day in which the assay was run, the media was removed and 200 μL of 5× Calcium Plus Dye (Molecular Devices) which was previously resuspended with 200 mL of assay buffer [HBSS w/Ca^2+ and Mg^2+ w/o phenol red, 20 mM HEPES, 0.1% BSA, 10 mL probenecid (710 mg probenecid in 5 mL of 1N NaOH, to which was then added 5 mL HBSS containing 20 mM HEPES)] was added to each well of the 96-well plate. The plate was incubated at 37 C and 5% CO2 for 30 min in dark. The plate was removed and allowed to reach RT for 15 min in the dark. The assay was then run on the FLIPR. In Brief: base line read for 1 min, compound added (25 μL) and incubated for 4 min, 15 seconds, PK1 ligand preparation added (25 μL) for a final concentration of a previously determined EC50 and fluorescence was counted for 1 min, 45 seconds. Baseline is described as the amount of relative fluorescence read when buffer alone is added to cells. Baseline was subtracted from all wells. Percent of control was calculated as follows: […]

T1 sequence (Q8TCW9 whole entry, species assumed): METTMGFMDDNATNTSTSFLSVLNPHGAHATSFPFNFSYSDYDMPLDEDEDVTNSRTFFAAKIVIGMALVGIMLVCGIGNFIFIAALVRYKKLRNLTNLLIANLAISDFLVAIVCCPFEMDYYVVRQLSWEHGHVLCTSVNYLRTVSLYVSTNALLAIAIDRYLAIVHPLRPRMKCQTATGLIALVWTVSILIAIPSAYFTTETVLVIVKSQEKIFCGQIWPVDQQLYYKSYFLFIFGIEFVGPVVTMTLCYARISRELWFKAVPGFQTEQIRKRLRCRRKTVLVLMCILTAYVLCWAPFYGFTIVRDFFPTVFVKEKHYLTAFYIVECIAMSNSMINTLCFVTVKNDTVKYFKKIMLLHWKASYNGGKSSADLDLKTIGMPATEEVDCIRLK
PK1 receptor, sequence (Q8R416 whole entry): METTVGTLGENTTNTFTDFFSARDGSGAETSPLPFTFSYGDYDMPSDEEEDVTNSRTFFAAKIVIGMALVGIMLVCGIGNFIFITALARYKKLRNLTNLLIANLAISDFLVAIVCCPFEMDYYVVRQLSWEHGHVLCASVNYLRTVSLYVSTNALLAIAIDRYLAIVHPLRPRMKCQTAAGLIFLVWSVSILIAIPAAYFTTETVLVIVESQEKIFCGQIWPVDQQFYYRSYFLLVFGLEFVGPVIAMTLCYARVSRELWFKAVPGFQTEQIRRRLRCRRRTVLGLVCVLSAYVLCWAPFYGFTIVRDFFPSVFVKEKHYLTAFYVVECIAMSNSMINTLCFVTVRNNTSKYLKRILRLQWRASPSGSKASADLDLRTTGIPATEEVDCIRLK

Row | IC50 [2] | Structure (SMILES) | suppression of the PK1 evoked increase in Isc (PK1 receptor) | suppression of the pro-secretory effect of carbachol (unrelated secretagogue) [1]
1 |  | COc1ccc(Cn2c(NCc3cccnc3N)nc(=O)n(Cc3ccc(OC)cc3)c2=O)cc1 [Cpd 3, 6-[(2-Amino-pyridin-3-ylmethyl)-amino]-1,3-bis-(4-methoxy-benzyl)-1H-[1,3,5]triazine-2,4-dione] | suppresses [passage A] and significant surmountable antagonism [passage B] | without inhibiting [passage A] and failed to suppress [passage B]
2 | 36 nM and 697 nM [one cell] | COc1ccc(Cn2c(NCc3cnc(C)cc3C)cc(=O)n(Cc3ccc(OC)cc3)c2=O)cc1 [Cpd 61] |  | 
3 | 374 nM and > 10 µM [one cell] | COc1cc(F)c(Cn2c(=O)nc(NCc3cnc(C)cc3C)n(Cc3ccc(OC(F)F)cc3)c2=O)c(F)c1 [Cpd 195] |  | 
